# Measured values taken from PubChem BioAssay AID504332 (National Center for Advancing Translational Sciences (NCATS), 2011).
# Screen size: about 350,000 compounds; about 31,000 (8.9%) were called active. Inconclusive results, whose numbers are uncertain, are shown with a selection of clear calls. The call rests on the fitted dose curve; in most records, active means well fitted inhibition curve with a large enough effect; inconclusive means small, poorly fitted or top-dose-only effect; inactive means no such curve, though single readings can be large or run the other way. Potencies of inconclusive entries are doubtful fits and often do not repeat.
# Molecular target: Histone-lysine N-methyltransferase EHMT2 (Homo sapiens) (UniProt Q96KQ7)
# Test: qHTS Assay for Inhibitors of Histone Lysine Methyltransferase G9a; further: nearly all actives have a fitted effect of over 75% in size
# Details: G9a H3K9 monomethylation, AlphaScreen, 2 h; activity, negative = inhibition: at 59 µM (top of the series) unless noted
# Method in brief: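 Quantitative HTS format: methyltransferase activity on a biotin-tagged H3K9 peptide is measured by AlphaScreen, using a rabbit anti-monomethyl-H3K9 antibody with streptavidin donor and anti-IgG acceptor beads. Final levels are 20 nM enzyme, 500 nM peptide, 20 uM SAM; 2 h RT.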
# On the % scale 0 is the no-effect control and ±100 the full control effect; potency means the concentration at half of the fitted maximal effect; tags describe the fitted curve by direction and shape.
# Chain of UniProt Q96KQ7 (Q96KQ7 whole entry, looked up): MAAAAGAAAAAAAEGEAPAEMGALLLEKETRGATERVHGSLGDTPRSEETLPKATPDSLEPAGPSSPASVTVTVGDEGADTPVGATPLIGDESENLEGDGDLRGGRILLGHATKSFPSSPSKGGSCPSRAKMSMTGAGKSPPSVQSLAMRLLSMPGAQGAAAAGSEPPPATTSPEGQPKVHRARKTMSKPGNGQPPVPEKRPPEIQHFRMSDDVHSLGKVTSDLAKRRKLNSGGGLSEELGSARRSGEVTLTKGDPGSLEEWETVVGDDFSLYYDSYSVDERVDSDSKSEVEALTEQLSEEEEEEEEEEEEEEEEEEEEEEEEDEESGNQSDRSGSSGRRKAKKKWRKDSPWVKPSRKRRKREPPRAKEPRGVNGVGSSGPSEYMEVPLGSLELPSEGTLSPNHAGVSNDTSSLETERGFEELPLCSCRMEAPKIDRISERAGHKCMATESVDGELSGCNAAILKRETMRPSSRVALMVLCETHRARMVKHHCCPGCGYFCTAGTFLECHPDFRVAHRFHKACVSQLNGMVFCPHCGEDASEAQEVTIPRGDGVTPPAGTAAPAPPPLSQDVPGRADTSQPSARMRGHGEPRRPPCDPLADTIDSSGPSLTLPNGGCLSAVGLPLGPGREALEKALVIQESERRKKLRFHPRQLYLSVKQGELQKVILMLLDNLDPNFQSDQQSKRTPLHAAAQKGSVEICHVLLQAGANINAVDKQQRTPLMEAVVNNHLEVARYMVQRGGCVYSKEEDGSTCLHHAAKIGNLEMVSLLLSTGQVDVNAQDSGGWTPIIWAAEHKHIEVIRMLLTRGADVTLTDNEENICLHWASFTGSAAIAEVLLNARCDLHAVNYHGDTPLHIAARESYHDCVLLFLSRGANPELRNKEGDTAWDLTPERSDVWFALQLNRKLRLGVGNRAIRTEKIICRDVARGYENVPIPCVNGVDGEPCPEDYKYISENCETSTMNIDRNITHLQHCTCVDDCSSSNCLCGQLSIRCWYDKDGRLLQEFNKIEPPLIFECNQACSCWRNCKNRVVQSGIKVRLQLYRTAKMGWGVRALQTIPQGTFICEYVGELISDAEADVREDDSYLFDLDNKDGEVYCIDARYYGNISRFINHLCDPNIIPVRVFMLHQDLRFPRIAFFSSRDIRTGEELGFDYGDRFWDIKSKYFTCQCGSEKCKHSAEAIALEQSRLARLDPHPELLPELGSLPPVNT
Structure (SMILES),Potency,"activity, negative = inhibition"
Cc1cccc(C)c1Nc1c(-c2ccsc2)nc2ccc(Cl)cn12,"inconclusive: 15.8 µM [inhibitor, partial curve, poor fit]",
COCC(=O)N1CCCC(C(=O)c2ccc(C(F)(F)F)cc2)C1 (configuration not stated),inactive,
CC(=O)C1=C(O)C=C(c2ccco2)CC1c1ccco1 (configuration not stated),"inconclusive: 50.1 µM [inhibitor, partial curve, poor fit]",
COC(=O)C1=C(Nc2ccccc2NC(=O)c2ccccc2C(=O)O)CSC1,inactive,
CCOC(=O)N1CCN(Cc2cc(=O)oc3ccc(Cl)cc23)CC1,active: 56.2 µM,
N#Cc1c(SCC(=O)Nc2nccs2)nc2c(c1-c1ccco1)CCCC2,"inconclusive: 1.78 µM [inhibitor, partial curve, poor fit]",
COc1ccc(N2CCN(Cc3nc4ccccc4n3C)CC2)cc1,"inconclusive: 20 µM [inhibitor, single point]",
COc1ccc(N=C/C=C2\C=C(c3ccccc3)OC(C)(C)O2)cc1,active: 12.6 µM,
COc1ccc(N(C)S(=O)(=O)c2cccc(C(=O)N3CCN(c4ccccc4)CC3)c2)cc1,"inconclusive: 56.2 µM [inhibitor, partial curve, poor fit]",
COc1cc(OC)cc(OC(=O)C2CCN(S(=O)(=O)c3ccc(OC)c(OC)c3)CC2)c1,"inconclusive: 1.41 µM [inhibitor, full curve]",
Cc1nnc2sc(SCc3ccc(Br)cc3)nn2c1=O,inactive,
COc1ccc(-c2cn3nc(N4CCCC(C(=O)NCc5ccccc5Cl)C4)sc3n2)cc1 (configuration not stated),"inconclusive: 22.4 µM [inhibitor, partial curve, poor fit]",
CCOc1cc(/C=C2/C(=O)N(c3ccccc3)N=C2C)ccc1OC(=O)c1cccs1,active: 39.8 µM,
O=C(/C=C/c1ccc2ccccc2n1)N1CCN(c2ccccc2)CC1,"inconclusive: 35.5 µM [inhibitor, partial curve, poor fit]",
Cc1ccc(-n2nnnc2CNC(=O)C(C)C)cc1C,inactive,
CCSc1nnc2c(n1)OC(CC)N(C(C)=O)c1ccccc1-2 (configuration not stated),"inconclusive: 31.6 µM [inhibitor, partial curve, poor fit]",
c1ccc(-c2nnc(N3CCN(c4ccccn4)CC3)c3ccccc23)cc1,"inconclusive: 12.6 µM [inhibitor, partial curve, poor fit]",
COCCN(C(=O)COC(=O)Cc1coc2cc3c(cc12)CCC3)c1c(N)n(Cc2ccccc2)c(=O)[nH]c1=O,active: 39.8 µM,
CN(C)C(=O)NC(O)C(Cl)Cl (configuration not stated),"inconclusive: 22.4 µM [inhibitor, partial curve, poor fit]",
CCN1CCN(C(c2cccc(F)c2)c2c(O)cc(C)n(Cc3ccco3)c2=O)CC1 (configuration not stated),"inconclusive: 39.8 µM [inhibitor, single point]",
O=C1CC(c2ccccc2)Cc2[nH]c(=O)c(-c3nc(-c4ccc(Cl)cc4)cs3)cc21 (configuration not stated),"inconclusive: 15.8 µM [inhibitor, partial curve]",
Cc1nn(C)c2c1c(-c1ccccc1)cc(=O)n2C(C)C(=O)NCc1ccc(F)cc1 (configuration not stated),inactive,
N#Cc1ccccc1NS(=O)(=O)c1cc2c3c(c1)CCN3C(=O)CC2,"inconclusive: 89.1 µM [inhibitor, partial curve, poor fit]",

Structure (SMILES),Potency,"activity, negative = inhibition"
Cc1nnsc1C(=O)N/N=C/c1ccc2ccccc2c1O,active: 39.8 µM,
COc1ccc(S(=O)(=O)N2CCCCCC2)cc1C(=O)NCc1cccs1,,inactive: 7.43% [at 12.7 µM]
O=C(Cc1c(F)cccc1Cl)Nc1ccc(-n2cnnn2)cc1,"inconclusive: 6.31 µM [inhibitor, single point]",
CC(C)(C)C1CCc2c(sc3nc(SCC(=O)O)nc(N)c23)C1 (configuration not stated),active: 28.2 µM,
CCC(=O)c1ccc(OCC(=O)Nc2cc(S(=O)(=O)N3CCCCC3)ccc2OC)cc1,inactive,
CC1CN(S(=O)(=O)c2cccc(C(=O)N(Cc3nnc(-c4ccccc4Cl)o3)C3CC3)c2)CC(C)O1 (configuration not stated),,inactive: -6.19% [at 0.501 µM]
CC1(C)Cc2nc3nc(SCC(=O)NCCc4ccccc4)n(-c4ccccc4)c(=O)c3cc2CO1,,inactive: 18.9% [at 12.7 µM]
O=C(NCc1cccc(F)c1)c1cccc(NC(=O)c2nsc3ccccc23)c1,inactive,
COc1ccc(OC)c(C2c3c(oc4ccc(C)cc4c3=O)C(=O)N2CCCN(C)C)c1 (configuration not stated),inactive,
Cc1cc(C)n2nc(C(=O)NCCc3ccccc3)nc2n1,"inconclusive: 89.1 µM [inhibitor, single point]",
CCN(CC)S(=O)(=O)c1ccc(N2CCOCC2)c(NS(=O)(=O)c2ccc(OC)cc2)c1,inactive,
CCCCn1c(N)c(N(CCC(C)C)C(=O)CC2CCCC2)c(=O)[nH]c1=O,inactive,
CC(=O)c1ccc(N2CCN(S(=O)(=O)c3ccc4[nH]c5c(c4c3)CCCC5)CC2)cc1,"inconclusive: 7.94 µM [inhibitor, partial curve, poor fit]",
O=c1c2c(-c3ccc(Cl)cc3)ccnc2[nH]n1-c1ccccc1,inactive,
CCN1CCN(C(=O)COCc2cc(-c3ccc4c(c3)OCO4)on2)CC1,"inconclusive: 89.1 µM [inhibitor, single point]",
COc1ccc(CCNC(=O)CCN2C(=O)[C@@H]3Cc4ccccc4CN3C2=O)cc1OC,"inconclusive: 89.1 µM [inhibitor, single point]",
CCC(C(=O)Nc1cc(-c2nc3cccnc3s2)ccc1C)c1ccccc1 (configuration not stated),"inconclusive: 10 µM [inhibitor, partial curve]",
N#CC1=C(N)N(c2ccccc2)C(c2cccc([N+](=O)[O-])c2)C1(C#N)C#N (configuration not stated),active: 44.7 µM,
CCC(CC)C(=O)Nc1cccc(-c2nc3ccccc3s2)c1,"inconclusive: 8.91 µM [inhibitor, partial curve]",
CCOc1ccc(-c2nnc(SCC(=O)NCc3ccc(C)cc3)nc2-c2ccc(OCC)cc2)cc1,"inconclusive: 6.31 µM [inhibitor, single point]",
CCC(C)N(C(=O)CSc1nc(-c2ccccc2)cs1)C1CCS(=O)(=O)C1 (configuration not stated),"inconclusive: 39.8 µM [inhibitor, single point]",
CCc1ccc(-n2nc3ccc(NC(=O)c4ccc(C#N)cc4F)cc3n2)cc1,"inconclusive: 28.2 µM [inhibitor, single point]",
O=C(NCc1cccnc1)c1cccc(S(=O)(=O)N2CCCCC2)c1,"inconclusive: 100 µM [inhibitor, single point]",

Structure (SMILES),Potency,"activity, negative = inhibition"
Cc1ccc(S(=O)(=O)N(C)c2ccc(OCC(=O)O)cc2)cc1,"inconclusive: 79.4 µM [inhibitor, single point]",
C=Cc1ccc(COC(=O)c2cn(CC)c3nc(C)ccc3c2=O)cc1,"inconclusive: 1.12 µM [inhibitor, full curve]",
Cc1cc(C)c(OCCN(C)C)c(Cl)c1,active: 11.2 µM,
Cc1noc(C)c1COc1ccc(C(=O)OCC(=O)Nc2ccc3ccccc3c2)cc1,"inconclusive: 39.8 µM [inhibitor, single point]",
COCCn1c(SCC(=O)NC2CCCCC2)nc2c(c1=O)SCC2,inactive,
CCOC(=O)c1c(-c2ccccc2)csc1NC(=O)c1cc(-c2ccc(Cl)cc2)on1,active: 17.8 µM,
Cn1c(-c2ccc(F)cc2)cnc1SCC(=O)N1CCCc2ccccc21,active: 44.7 µM,
Cc1ccccc1-c1nc2cc(NC(=O)COc3ccc(F)cc3)ccc2o1,inactive,
COC(=O)C1=C(C)NC(C)=C(C(=O)OCCN2CCN(C(c3ccccc3)c3ccccc3)CC2)C1c1cccc([N+](=O)[O-])c1 (configuration not stated),"inconclusive: 3.16 µM [inhibitor, partial curve, poor fit]",
Oc1ccc(/C=N/Nc2nc(N3CCCCCC3)nc(N3CCCCCC3)n2)c(O)c1,"inconclusive: 50.1 µM [inhibitor, partial curve, poor fit]",
O=C1CCCc2c1cc(C(=O)NC1CCSC1=O)c(=O)n2-c1ccccc1 (configuration not stated),"inconclusive: 3.55 µM [inhibitor, full curve, poor fit]",
O=S(=O)(Nc1ccccc1)c1ccc(S(=O)(=O)N2CCCC2)cc1,"inconclusive: 35.5 µM [inhibitor, single point]",
Cc1ccc(/C=N/N2CCN(Cc3ccc(C)cc3)CC2)cc1,"inconclusive: 2.82 µM [inhibitor, partial curve, poor fit]",
COc1ccc(NC(=O)/C=C/c2cccc(Br)c2)cn1,"inconclusive: 89.1 µM [inhibitor, single point]",
COc1ccc(NC(=O)CN2CCCN(S(=O)(=O)c3ccc(F)cc3)CC2)cc1,"inconclusive: 2 µM [inhibitor, partial curve, poor fit]",
Cc1onc(-c2ccccc2Cl)c1C(=O)Nc1sc2c(c1C#N)CCC2,active: 10 µM,
CC(=O)Nc1cc(C(=O)NCc2ccco2)ccc1Sc1ccc(Cl)cc1,"inconclusive: 89.1 µM [inhibitor, single point]",
CC12CCC(=O)N1C(C(=O)Nc1nc(-c3cc(F)ccc3F)cs1)CS2 (configuration not stated),"inconclusive: 89.1 µM [inhibitor, partial curve, poor fit]",
COc1cc(OC)cc(-c2nnc(SCc3ccc(C(=O)O)cc3)o2)c1,active: 39.8 µM,
O=C(N/N=C/C=C/c1ccccc1[N+](=O)[O-])c1cc(-c2ccccc2)n[nH]1,"inconclusive: 56.2 µM [inhibitor, partial curve, poor fit]",
Cc1ccc(NC(=O)c2cccnc2)cc1S(=O)(=O)N1CCOCC1,active: 50.1 µM,
